To fix the notation:
B1: accD V121Q (protein)
chain: MSWIERIKSNITPTRKASIPEGVWTKCDSCGQVLYRAELERNLEVCPKCDHHMRMTARNRLHSLLDEGSLVELGSELEPKDVLKFRDSKKYKDRLASAQKETGEKDALVVMKGTLYGMPVQAAAFEFAFMGGSMGSVVGARFVRAVEQALEDNCPLICFSASGGARMQEALMSLMQMAKTSAALAKMQERGLPYISVLTDPTMGGVSASFAMLGDLNIAEPKALIGFAGPRVIEQTVREKLPPGFQRSEFLIEKGAIDMIVRRPEMRLKLASILAKLMNLPAPNPEAPREGVVVPPVPDQEPEA
B2: thiL I9A (protein)
chain: MACGEFSLAARYFDRVRSSRLDVELGIGDDCALLNIPEKQTLAISTDTLVAGNHFLPDIDPADLAYKALAVNLSDLAAMGADPAWLTLALTLPDVDEAWLESFSDSLFDLLNYYDMQLIGGDTTRGPLSMTLGIHGFVPMGRALTRSGAKPGDWIYVTGTPGDSAAGLAILQNRLQVADAKDADYLIKRHLRPSPRILQGQALRDLANSAIDLSDGLISDLGHIVKASDCGARIDLALLPFSDALSRHVEPEQALRWALSGGEDYELCFTVPELNRGALDVALGHLGVPFTCIGQMTADIEGLCFIRDGEPVTLDWKGYDHFATP
B3: thiL I9W (protein)
chain: B2 chain with A9W
B4: thiL I9Q (protein)
chain: B2 chain with A9Q
B5: suhB I83A (protein)
chain: MHPMLNIAVRAARKAGNLIAKNYETPDAVEASQKGSNDFVTNVDKAAEAVIIDTIRKSYPQHTIITEESGELEGTDQDVQWVADPLDGTTNFIKRLPHFAVSIAVRIKGRTEVAVVYDPMRNELFTATRGQGAQLNGYRLRGSTARDLDGTILATGFPFKAKQYATTYINIVGKLFNECADFRRTGSAALDLAYVAAGRVDGFFEIGLRPWDFAAGELLVREAGGIVSDFTGGHNYMLTGNIVAGNPRVVKAMLANMRDELSDALKR
B6: suhB V116D (protein)
chain: B5 chain with A83I, V116D
B7: suhB I83D (protein)
chain: B5 chain with A83D
B8: suhB I83P (protein)
chain: B5 chain with A83P
B9: suhB V40D (protein)
chain: B5 chain with V40D, A83I
B10: suhB V40A (protein)
chain: B5 chain with V40A, A83I
B11: suhB F230A (protein)
chain: B5 chain with A83I, F230A
B12: suhB I83Q (protein)
chain: B5 chain with A83Q
B13: suhB V116Q (protein)
chain: B5 chain with A83I, V116Q
B14: suhB V40Q (protein)
chain: B5 chain with V40Q, A83I
B15: suhB V116A (protein)
chain: B5 chain with A83I, V116A
B16: suhB F230D (protein)
chain: B5 chain with A83I, F230D

Substitutions are numbered along the chain they refer to. In names and notes the source's numbering stands. ± gives the standard deviation of the averaged measurements. Laboratory Escherichia coli strains with one amino-acid change in an essential protein, pooled on minimal glucose agar with carbenicillin or gentamicin at twice the control MIC (plus kanamycin and chloramphenicol for the plasmids), 48 h. Fold change of barcode share against drug-free plates; higher = less susceptible. Active = above 20 in both replicates (the paper's putatively resistant). '<' = one read or none on drug, '>' = one read or none on a drug-free plate. Shares are relative, so most strains fall below 1 when a few take over. Listed are strains with at least 15 reads on both drug-free plates, and hits; most hits rest on fewer reference reads. Replicate rank correlation about 0.5. Edits are read from barcodes.

Results on 16 proteins are retold here after the supplement of paper PMC11876631.

One series has as its target Escherichia coli (laboratory strain). Put plainly: barcode share on antibiotic plates over drug-free plates; higher = less susceptible. Particulars: antibiotic: carbenicillin; 2× MIC (3.1 µg/mL). Here is the method: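 A pool of E. coli strains, each edited to carry one amino-acid change in an essential protein, was grown for 48 h on minimal glucose agar with or without antibiotic; strain barcodes were sequenced; mean of two replicates.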
In the case of B1, the “fold change of barcode share” value amounted to 0.562 ± 0.018. As to B2, the “fold change of barcode share” value turned out to be 0.277 ± 0.061. The same measure, in the same setting: as for B3, the figure is 0.302 ± 0.11. In the case of B4, the “fold change of barcode share” value is 0.437 ± 0.1. Still for that read-out and setting: under B5 stands 0.129 ± 0.008; under B6, 0.341 ± 0.11; under B7, 0.161 ± 0.068. On to B8, for which the “fold change of barcode share” value is 0.289 ± 0.1. The same measure, in the same setting: as for B9, the figure is 0.272 ± 0.18. As to B10, the “fold change of barcode share” value turned out to be 0.182 ± 0.17.

Consider B11, for which the “fold change of barcode share” value is 0.179 ± 0.076.

As for B12, the “fold change of barcode share” value amounted to 0.287 ± 0.058. Same read-out and setting: under B13 stands 0.277 ± 0.068; under B14, 0.168 ± 0.0022. The same measure, in the same setting: as for B15, the figure is 0.245 ± 0.0012; as for B16, 0.297 ± 0.02.

The same series, now with this note: antibiotic: gentamicin; 2× MIC (MIC 0.45 µg/mL).
As for B1, the “fold change of barcode share” value was found to be 0.00435 ± 0.003. Take B2: the “fold change of barcode share” value was less than 0.00835. On to B3, for which the “fold change of barcode share” value is 0.0086 ± 0.0042. Same read-out and setting: under B4 stands less than 0.0058. Same read-out and setting: as for B5, the figure is less than 0.0213. With B6, the “fold change of barcode share” value worked out at 0.0153 ± 0.018.

As for B7, the “fold change of barcode share” value is less than 0.0178.

Regarding B8, the “fold change of barcode share” value was less than 0.0154. Same read-out and setting: as for B9, the figure is 0.029 ± 0.019; as for B10, less than 0.0178; as for B11, less than 0.0108. Regarding B12, the “fold change of barcode share” value was less than 0.0104. In the case of B13, the “fold change of barcode share” value was 0.023 ± 0.02.

Take B15: the “fold change of barcode share” value is less than 0.00338. As to B16, the “fold change of barcode share” value is less than 0.0055.
